In PMC4336329 (PLoS ONE, 2015):
The whole screen tested about 310,000 compounds, of which about 14,000 (4.5%) showed an effect of 50% or more. Effects have a minus sign here. Some of the results follow.
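Also: peak tail current of the secondary pulse compared with the same well before compound.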

The compounds below were run against human ether-à-go-go-related gene (hERG) potassium channel (human, UniProt Q12809) (assay: primary screen, population patch clamp on CHO cells stably expressing hERG).
Sequence of human ether-à-go-go-related gene (hERG) potassium channel (Q12809 whole entry, looked up): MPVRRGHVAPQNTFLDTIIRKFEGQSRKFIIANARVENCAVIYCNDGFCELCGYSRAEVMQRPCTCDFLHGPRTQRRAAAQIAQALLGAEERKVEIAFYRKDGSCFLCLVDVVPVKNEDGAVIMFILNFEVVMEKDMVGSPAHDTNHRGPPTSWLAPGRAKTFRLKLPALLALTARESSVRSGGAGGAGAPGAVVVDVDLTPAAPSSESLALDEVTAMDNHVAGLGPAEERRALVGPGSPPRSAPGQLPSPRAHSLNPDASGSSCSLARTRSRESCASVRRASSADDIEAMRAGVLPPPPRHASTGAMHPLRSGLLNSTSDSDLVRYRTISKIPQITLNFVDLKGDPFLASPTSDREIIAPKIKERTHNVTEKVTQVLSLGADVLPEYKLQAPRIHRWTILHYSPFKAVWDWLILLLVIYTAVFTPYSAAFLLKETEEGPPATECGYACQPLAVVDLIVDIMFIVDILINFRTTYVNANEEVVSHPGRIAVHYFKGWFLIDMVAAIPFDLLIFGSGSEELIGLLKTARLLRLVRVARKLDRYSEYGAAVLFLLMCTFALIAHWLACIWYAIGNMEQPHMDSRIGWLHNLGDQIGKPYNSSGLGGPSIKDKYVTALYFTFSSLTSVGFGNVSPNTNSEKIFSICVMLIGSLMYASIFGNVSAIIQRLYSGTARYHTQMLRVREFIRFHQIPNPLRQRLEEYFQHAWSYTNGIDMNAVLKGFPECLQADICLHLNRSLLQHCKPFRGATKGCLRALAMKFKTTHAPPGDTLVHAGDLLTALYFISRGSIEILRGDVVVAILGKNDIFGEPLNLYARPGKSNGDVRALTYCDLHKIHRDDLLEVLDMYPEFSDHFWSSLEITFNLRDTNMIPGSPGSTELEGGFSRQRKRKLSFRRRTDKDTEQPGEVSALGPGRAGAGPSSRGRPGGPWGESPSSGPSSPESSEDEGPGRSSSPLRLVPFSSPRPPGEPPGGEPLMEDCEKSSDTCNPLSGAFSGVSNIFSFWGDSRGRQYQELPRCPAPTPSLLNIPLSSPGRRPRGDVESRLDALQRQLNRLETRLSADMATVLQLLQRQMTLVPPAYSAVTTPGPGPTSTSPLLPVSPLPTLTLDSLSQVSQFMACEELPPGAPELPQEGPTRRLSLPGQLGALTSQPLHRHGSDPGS
For `Cc1[nH]c2ccccc2c1C(C[N+](=O)[O-])c1cccc(O)c1` (stereo not drawn), the “hERG current change (%, negative = inhibition) at 10uM” value was 8.53%.
With `Cc1ccc(C2=Nn3c(COc4ccc(Cl)cc4)nnc3SC2CC(=O)O)cc1` (stereo not drawn) the “hERG current change (%, negative = inhibition) at 10uM” value was 0.51%.
`Nc1c(NCCCN2CCOCC2)c2ccccc2oc1=O` was tested, and the “hERG current change (%, negative = inhibition) at 10uM” value was 3%.
For `Cc1cc(NC(=O)CN2C(=O)NC3(CCCCCC3)C2=O)no1`, the “hERG current change (%, negative = inhibition) at 10uM” value was 9.2%.
`COc1ccc([C@H]2/C=C\CN(C(=O)CC(C)(C)C)[C@@H](C)C(=O)N2Cc2ccc(F)cc2)cc1` was tested, and the “hERG current change (%, negative = inhibition) at 10uM” value was -17.4%.
For `CCOc1ccc(N2CC(C(=O)Nc3nnc(Cc4ccc(OC)cc4)s3)CC2=O)cc1` (stereo not drawn), the “hERG current change (%, negative = inhibition) at 10uM” value was -19.2%.
`COc1cc2c(C#CCCO)c(-c3ccc(C#N)cc3)oc(=O)c2cc1OC` was tested, and the “hERG current change (%, negative = inhibition) at 10uM” value was -30.4%.
In the case of `CCOc1ccc(NC(=S)Nc2ccc(OCc3ccccc3)cc2)cc1`, the “hERG current change (%, negative = inhibition) at 10uM” value is reported as 4.64%.
In the case of `O=C(c1cc(S(=O)(=O)N2CCC3(CC2)OCCO3)ccc1F)N1CCC2(CC1)OCCO2`, the “hERG current change (%, negative = inhibition) at 10uM” value is reported as -10.5%.
`O=S(=O)(c1cccc(-c2csc(N/N=C/c3ccco3)n2)c1)N1CCOCC1` was tested, and the “hERG current change (%, negative = inhibition) at 10uM” value was 1.03%.
For `O=c1[nH]c(-c2ccccc2)c(-c2ccccc2)[nH]1`, the “hERG current change (%, negative = inhibition) at 10uM” value was 13.3%.
For `Cc1ccc(NC(=O)CSC2=C(C#N)C(c3ccc4c(c3)OCO4)C3=C(CCCC3=O)N2)c(C)c1` (stereo not drawn), the “hERG current change (%, negative = inhibition) at 10uM” value was -23.4%.
With `CCc1ccc(N2C(=O)NC(=O)C(CCc3ccncc3)(CCc3ccncc3)C2=O)cc1` the “hERG current change (%, negative = inhibition) at 10uM” value was -69.9%.
In the case of `COc1cccc(C2CC(c3cccs3)=NN2C(=O)CSc2nc3ccccc3o2)c1OC` (stereo not drawn), the “hERG current change (%, negative = inhibition) at 10uM” value is reported as 3.09%.
In the case of `COc1ccc(-c2nc(Cn3c(SCc4ccccc4F)nc4ccncc43)c(C)o2)cc1`, the “hERG current change (%, negative = inhibition) at 10uM” value is reported as 4.5%.
`CC(C)c1ccc(NC2CCCN(C(=O)c3ccc4nccnc4c3)C2)cc1` (stereo not drawn) was tested, and the “hERG current change (%, negative = inhibition) at 10uM” value was 4.68%.
In the case of `CC(C)(CN1CCCC1)NS(=O)(=O)c1ccc(Cl)cc1`, the “hERG current change (%, negative = inhibition) at 10uM” value is reported as 29.6%.
For `COC(=O)c1sc(S(=O)(=O)N2CCC(C(=O)O)CC2)c(C(=O)OC)c1C`, the “hERG current change (%, negative = inhibition) at 10uM” value was 3.11%.
In the case of `CCOC(=O)Cc1[nH]nc2c1C(c1ccsc1)C(C#N)=C(N)O2` (stereo not drawn), the “hERG current change (%, negative = inhibition) at 10uM” value is reported as 12.9%.
`O=C(CSc1nnc(CNC(=O)c2ccccc2F)o1)NC1CCCCC1` was tested, and the “hERG current change (%, negative = inhibition) at 10uM” value was 15.8%.
`Cn1c(CCC(=O)O)nc2cc(S(=O)(=O)N3CCCCC3)ccc21` was tested, and the “hERG current change (%, negative = inhibition) at 10uM” value was 4.66%.
In the case of `CCn1nc(C(=O)O)c(=O)c2cc3c(cc21)OCO3`, the “hERG current change (%, negative = inhibition) at 10uM” value is reported as 13.1%.
For `O=c1c2ccccc2[se]n1-c1ccccc1`, the “hERG current change (%, negative = inhibition) at 10uM” value was 27.7%.
In the case of `O=C(c1c(F)cccc1F)N1CCCC(c2nc(-c3ccc(Cl)cc3)no2)C1` (stereo not drawn), the “hERG current change (%, negative = inhibition) at 10uM” value is reported as -15.7%.
For `O=C(CNC(=O)c1ccc(F)cc1)N/N=C/c1cn[nH]c1-c1ccccc1`, the “hERG current change (%, negative = inhibition) at 10uM” value was -18.1%.
With `Cl.O=C(COc1ccc(Cl)cc1Cl)NCCCn1ccnc1` the “hERG current change (%, negative = inhibition) at 10uM” value was -38.6%.
For `COCCn1c(Cc2ccccc2)nnc1SCc1nc2ccccc2c(=O)[nH]1`, the “hERG current change (%, negative = inhibition) at 10uM” value was -1.05%.
`O=C(O)/C=C/C(=O)Nc1c(F)cccc1F` was tested, and the “hERG current change (%, negative = inhibition) at 10uM” value was 9%.
In the case of `Cl.Cn1c(C(=O)N2CCN(Cc3ccc4c(c3)OCO4)CC2)cc2sccc21`, the “hERG current change (%, negative = inhibition) at 10uM” value is reported as -8.46%.
In the case of `Cc1ccccc1C(=O)Nc1ccc(C(=O)NNC(=O)CCCOc2ccc(Cl)cc2Cl)cc1`, the “hERG current change (%, negative = inhibition) at 10uM” value is reported as 15.8%.
For `O=C(Nc1ccccc1)c1ccc2c(c1)OCCO2`, the “hERG current change (%, negative = inhibition) at 10uM” value was 13.5%.
In the case of `COc1ccc(C(C(=O)NC2CCCC2)N(C(=O)c2snc(-c3ccc(F)cc3)c2N)c2ccccc2)cc1` (stereo not drawn), the “hERG current change (%, negative = inhibition) at 10uM” value is reported as -7.86%.
`Cc1c(NS(=O)(=O)c2cc(C(=O)NCCN(C)C)ccc2Cl)c(=O)n(-c2ccccc2)n1C.Cl` was tested, and the “hERG current change (%, negative = inhibition) at 10uM” value was 16.9%.
In the case of `COc1ccc(C2C(C(=O)Nc3ccc(F)cc3)=C(C)Nc3nc(CCCO)nn32)cc1` (stereo not drawn), the “hERG current change (%, negative = inhibition) at 10uM” value is reported as 18.3%.
With `COc1ccc(CCNC(=O)C2CC2)cc1` the “hERG current change (%, negative = inhibition) at 10uM” value was 0.64%.
For `CC1=CC(C)[C@@H]2COC(c3ccc(O)cc3)[C@H]1C2C` (stereo partly drawn), the “hERG current change (%, negative = inhibition) at 10uM” value was 4.96%.
`CC(C)N1CCc2c(sc(NC(=O)CCS(=O)(=O)c3ccccc3)c2C#N)C1.Cl` was tested, and the “hERG current change (%, negative = inhibition) at 10uM” value was -9.63%.
With `CCC(=O)Nc1ccc(Nc2ccccc2)cc1` the “hERG current change (%, negative = inhibition) at 10uM” value was 1.15%.
In the case of `CCOP(=O)(OCC)/C(C#N)=C/c1ccoc1`, the “hERG current change (%, negative = inhibition) at 10uM” value is reported as 1.07%.
In the case of `CCC1=C2CC[C@H]3C(=O)N(CC)C(=O)[C@H]3[C@H]2[C@@]2(Cc3ccccc3)C(=O)N(Cc3ccccc3)C(=O)N2C1=O`, the “hERG current change (%, negative = inhibition) at 10uM” value is reported as -4.26%.
In the case of `CCC(C)(C)c1ccc(OC(=O)c2cccnc2Cl)cc1`, the “hERG current change (%, negative = inhibition) at 10uM” value is reported as -0.975%.
`CC(=O)c1cccc(NC(=O)NC(C)c2ccc3c(c2)OCO3)c1` (stereo not drawn) was tested, and the “hERG current change (%, negative = inhibition) at 10uM” value was 24%.
With `CC1(C)CC(=O)C/C(=N\NC(=S)NCc2ccccc2)C1` the “hERG current change (%, negative = inhibition) at 10uM” value was 13.8%.
For `Cc1cc(NC(=O)c2ccccc2)ncc1NC(=O)c1ccco1`, the “hERG current change (%, negative = inhibition) at 10uM” value was 6.64%.
For `COc1cccc(NC(=O)CSc2nnc(CNC(=O)c3ccco3)n2C)c1`, the “hERG current change (%, negative = inhibition) at 10uM” value was 2.13%.
With `COCc1cc(Sc2cccc(Cl)c2Cl)nc(-c2ccccc2)n1` the “hERG current change (%, negative = inhibition) at 10uM” value was 9.15%.
For `CC1=C(C(=O)OCc2ccccc2)C(c2ccccc2OC(F)F)NC(=O)N1` (stereo not drawn), the “hERG current change (%, negative = inhibition) at 10uM” value was -17.2%.
With `O=C(O)c1ccc(NC(=O)c2cccc(N3C(=O)C4C5CCC(C5)C4C3=O)c2)cc1` (stereo not drawn) the “hERG current change (%, negative = inhibition) at 10uM” value was 23.9%.
With `O=C(O)C1=CC[C@@H](c2ccc(Cl)cc2)N(S(=O)(=O)c2ccc(Cl)cc2)[C@H]1c1ccccc1` the “hERG current change (%, negative = inhibition) at 10uM” value was -0.499%.
In the case of `CCOc1ccc(NC(=S)N(CCc2c(C)[nH]c3ccc(C)cc23)Cc2ccco2)cc1`, the “hERG current change (%, negative = inhibition) at 10uM” value is reported as 3.28%.
For `CCCCCC(CC(=O)NO)C(=O)NC(C(=O)N1CCCC1CO)C(C)C` (stereo not drawn), the “hERG current change (%, negative = inhibition) at 10uM” value was 16.3%.
`O=C(c1cc(COc2ccccc2)on1)N1CCCC(OCc2cccnc2)C1` (stereo not drawn) was tested, and the “hERG current change (%, negative = inhibition) at 10uM” value was -16.6%.
For `CCN(CC(=O)NCc1ccc(F)cc1)C(=O)CCNS(=O)(=O)c1cccc(C)c1`, the “hERG current change (%, negative = inhibition) at 10uM” value was -51.9%.
For `CC1CN(CCOc2ccc(Cl)c(Cl)c2)CC(C)O1.O=C(O)C(=O)O` (stereo not drawn), the “hERG current change (%, negative = inhibition) at 10uM” value was -5.18%.
